Data: PubChem BioAssay AID1508623 (National Center for Advancing Translational Sciences (NCATS), 2021)
About 450 (0.94%) of roughly 48,000 compounds were called active. Another 19% or so got no clear call; they are omitted. The call rests on the fitted dose curve; in most records, active means well fitted inhibition curve with a large enough effect; inconclusive means small, poorly fitted or top-dose-only effect; inactive means no such curve, though single readings can be large or run the other way. The list shows a part of the results.

assay: Primary qHTS for Identification of Small Molecule Inhibitors of Huntingtin Promoter Activity; conditions: HEK293 HTT promoter firefly luciferase reporter (activity 0% = vehicle and -100% = no light), 24 h; series mostly up to 57.5 µM; activity change, negative = inhibition: at the top concentration; further: nearly all actives have a fitted effect of over 50% in size
Summary of the method: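 HEK293 luciferase promoter-reporter cells (2,500/well) plated 24 h, then compounds added at up to 57.5 uM final for 24 h at 37 °C. Firefly luminescence by Dual-Glo, normalized to vehicle (0%) and zero RLU (-100%).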
Potency means the concentration at half of the fitted maximal effect.

Activity change, negative = inhibition, inactive:
COc1ccc(NC(=O)c2oc3ccccc3c2NC(=O)Cc2coc3ccc(C)cc23)cc1 7.69%
CCOc1cc(CNC(=O)c2ccc3nc(C(C)C)oc3c2)cc(OCC)c1OCC -20.8%
CCCCN(CC)C(=O)c1nn(-c2ccc(OC)cc2)c(=O)c2c1c1ccccc1n2C -9.88%
Cc1ccc(C)c(N2CCN(C(=O)c3cc4c(=O)oc5ccccc5c4s3)CC2)c1 -4.97%
O=C(Cn1c(=O)n(-c2ccccc2)c(=O)c2ccc(C(=O)NCc3ccc4c(c3)OCO4)cc21)Nc1ccc(Br)cc1 -28.4%
O=C(CSc1nc2ncccc2o1)Nc1cccc(C(F)(F)F)c1 20.7%
O=C(c1ccc(Nc2nccc(-c3cc4ccccc4s3)n2)cc1)N1CCC(N2CCCC2)CC1 -22%
Cc1nc(SCC(=O)Nc2nsc(-c3ccc(C(C)(C)C)cc3)n2)c2c3c(sc2n1)CCCC3 -21.6%
Nc1ncnc2c1ncn2[C@@H]1O[C@H](CO)[C@@H](O)[C@H]1O -8.19%
CCN(C(=O)CSc1nc(-c2ccccc2)no1)c1ccccc1 -9.15%
Cc1ccc2occ(-c3cc(-c4ccc(F)cc4)nc4c3COc3ccc(F)cc3-4)c(=O)c2c1 -11.5%
Cc1ccccc1CSc1nc(-c2cccc(F)c2)nc2c1Cc1c(CO)cnc(C)c1O2 -8.73%
COc1ccc(OC)c(CNC(=O)c2nn(C)c3c2CS(=O)(=O)c2ccccc2-3)c1 -11.5%
CN(C)C(=O)c1ccc2c(c1)N(CC(=O)NCc1ccccc1Cl)C(=O)C1CCCCN21 (stereo not given) -2.45%
CC(=O)Nc1ccc(Nc2ncnc3c2cnn3C)cc1 44.4%
CCOc1ccccc1CNC(=O)c1oc2c(c1C)-c1[nH]ncc1CC2 2.78%
CC1CCN(c2ncnc3c2c(-c2ccccc2)cn3-c2ccc(Br)cc2)CC1 -14.4%
CCCN(CCC)C(=O)Cn1c(=O)n(CCCCCC(=O)NCc2ccc3c(c2)OCO3)c(=O)c2sccc21 1.29%
Cc1ccc(C)n1-c1nnc(N2CCCC(C(=O)Nc3ccccc3Br)C2)s1 (stereo not given) -15.8%
CCOC(=O)c1c(NC(=O)c2cc(OC)c(OC)c(OC)c2)sc2c1CCCC2 8.67%
COc1ccccc1-c1noc(CCCC(=O)Nc2cccc(C(F)(F)F)c2)n1 -13.1%
O=C(CN1C(=O)C2(SCC(=O)N2c2cccc(Cl)c2)c2ccccc21)NCc1ccccc1 (stereo not given) -27%
COc1ccc(-c2cn3nc(N4CCC(C(=O)Nc5cc(Cl)ccc5C)CC4)sc3n2)cc1 4.27%
COc1ccc(NC(=O)CCCn2c(=O)c3cccn3c3cccnc32)cc1Cl -4.93%
O=C(CCCCCn1c(=O)c2sccc2n(CC(=O)Nc2cc(C(F)(F)F)ccc2Cl)c1=O)NCc1ccccc1Cl -25.3%
CCc1cccc(-n2c(=O)c3cccnc3n2CC(=O)NCc2ccc(C)cc2)c1 -7.15%
Cc1ccc(NC(=O)Cn2cnc3onc(-c4ccc(F)cc4)c3c2=O)c(Cl)c1 -19.2%
Cc1cccc(CC(=O)Nc2ccc3nc(N4CCC(C)CC4)cc(C)c3c2)c1 -28%
CC1=C(C(=O)Nc2cc(Cl)ccc2C)C(c2sccc2C)n2ncnc2N1 (stereo not given) 0.373%
Cc1cc(C)c(NC(=O)Cn2c(=O)n(CCC(=O)NCc3ccccc3Cl)c(=O)c3sccc32)c(C)c1 -11%
CSc1ncc(C(=O)NCc2ccc(C)cc2)c(C)n1 -6.71%
CC(C)(C)c1ccc2c(c1)N(CC(=O)NCCCN1CCN(c3ccccc3F)CC1)C(=O)CO2 -29.3%
CC(C)N(C(=O)Cn1cc(S(=O)(=O)Cc2ccc(Br)cc2)c2ccccc21)C(C)C -11.7%
CC1CCN(S(=O)(=O)c2ccc3c(c2)N(CC(=O)NCCCN2CCCCC2)C(=O)CS3)CC1 -12.9%
Cc1ccc(CNC(=O)c2cc(-c3ccc(C)cc3)nc3n[nH]c(-c4cccc([N+](=O)[O-])c4)c23)cc1 -8.91%
CCOc1ccc(S(=O)(=O)NCCc2c(C)[nH]c3c(Cl)cccc23)cc1C -18.7%
Cc1ccc(-n2c(COCC(=O)O)nc3cccnc32)cc1 -22%
Cc1ccc(/C=C(\C#N)C(=O)Nc2cccc(Br)c2)o1 49.2%
Cc1ccc(Cl)cc1N1CCN(C(=O)c2cc3c(=O)oc4ccccc4c3s2)CC1 -17.1%
CCN1CCN(C(c2ccccc2Cl)c2c(O)cc(C)n(CCOC)c2=O)CC1 (stereo not given) -11.1%
CC1(C)CCC(C)(C)c2cc(NC(=O)c3ccc(C(=O)O)cc3)ccc21
CCCCn1c(=O)nc2n(-c3ccc(Br)cc3)c3ccccc3cc-2c1=O 0.301%
Nc1nn(-c2ccccc2)nc1C(=O)OCc1ccccc1 19.9%
CC1CCCN(CCCNC(=O)Cn2ncc3c([nH]c4ccccc43)c2=O)C1 (stereo not given) -3.05%
Cc1nc2ccc(S(=O)(=O)NCC(=O)Nc3ccc(F)cc3F)cc2s1 -11.3%
Cc1ccc(S(=O)(=O)N2CCN(Cc3nc4ccc(C)cc4o3)CC2)c(C)c1 -7.65%
N[C@@H](Cc1cc(I)c(Oc2cc(I)c(O)c(I)c2)c(I)c1)C(=O)O
CC(C)(C)C(=O)Nc1ccccc1C(=O)OCc1cc(=O)n2ccsc2n1 -8.91%
Cc1ccc(-n2c(SCC(=O)N3CCCc4ccccc43)nc3c([nH]c4ccccc43)c2=O)cc1 13.1%
CCc1ccc(C2=CC(c3c(F)cccc3Cl)n3c(nc4ccccc43)N2)cc1 (stereo not given) -10.3%
CCOC(=O)c1c(C)[nH]c(C)c1S(=O)(=O)N(C)CC(=O)Nc1ccc(C)cc1Br -31.3%
COCCCNC(=O)CSC1=Nc2ccccc2C2=NC(CCC(=O)NCc3ccc(OC)cc3)C(=O)N12 (stereo not given) -19.8%
Cc1ccc(-c2cn3ccc(C)cc3n2)cc1 -9.83%
CC(C)CCn1c(/C=C/c2ccccc2)nc2ccccc21 -14.3%
Cc1cc(C)cc(NC(=O)CSc2nc3nccnc3c(=O)n2CCc2c[nH]c3ccccc23)c1 -15.9%
CCOC(=O)Cn1c(=O)n(C2CCCCC2)c2nc(-c3c(F)cccc3Cl)nc(C(N)=O)c21 -39.7%
Cc1cccc(NC(=O)Cn2c(=O)n(CCCCCC(=O)NCc3ccc4c(c3)OCO4)c(=O)c3sccc32)c1 -1.41%
COC(=O)c1scc(-c2ccc(C)cc2)c1S(=O)(=O)Nc1cc(C)ccc1OC -25.1%
COc1ccc(Nc2nc(C)nc(N)c2S(=O)(=O)c2ccccc2)cc1 -4.61%
COc1ccccc1C(=O)Nc1sc(Nc2ccccc2)nc1C(N)=O 8.35%
CCCNC(=O)C1CCC(Cn2c(=O)c3sccc3n(CC(=O)NCc3cccc(OC)c3OC)c2=O)CC1 (stereo not given) -18.7%
Cc1ccc(C)c(N2CCN(CCCNC(=O)c3ccc4nc(CCc5ccccc5)oc4c3)CC2)c1 -9.27%
Cc1cc(C)c2c(NC(=O)c3ccccc3)c(C(=O)Nc3ccc(F)cc3)sc2n1 3.41%
COc1cccc(N2CC(NC(=O)c3cc(Cl)ccc3OC)CC2=O)c1 (stereo not given) -26.2%
Cc1ccc(C(=O)N/C(=C\c2ccc(Cl)cc2)C(=O)NC2CCCCC2)cc1 -8.43%
COc1ccc(C(=O)c2sc(Nc3ccccc3)nc2N)cc1 -4.72%
CC(=O)c1cccc(NC(=O)CN(c2cc(C)cc(C)c2)S(=O)(=O)c2c(C)noc2C)c1 -8.63%
N#Cc1c(C(F)(F)F)cc(-c2cccs2)nc1SCC(=O)Nc1cccc(Cl)c1 -3.18%
Cc1cc(-n2ccnc(NCCc3ccc(S(N)(=O)=O)cc3)c2=O)ccc1Br -47.4%
COc1ccc(NC(=O)c2ccco2)cc1NC(=O)c1cc(OC)c(OC)c(OC)c1 2.82%
O=C(Nc1ccccc1)c1nc[nH]c1C(=O)O -14.2%
COc1cc(OC)c(N(C)C(=O)c2c(C)oc3ncn(CC(C)C)c(=O)c23)cc1Cl 0.244%
Cc1c(-c2ccccc2)nc2c(Cl)cccc2c1C(=O)OCC(=O)c1ccc(F)cc1 -4.71%
CCOC(=O)CSc1nc2cc3c(cc2c(=O)n1Cc1ccc(C(=O)NCCc2ccc(OC)c(OC)c2)cc1)OCO3 -8.12%
CCOc1ccccc1C(=O)N(Cc1sccc1C)C1CCS(=O)(=O)C1 (stereo not given) -10.9%
COc1ccc(-c2cc(C(F)(F)F)nc(SCC(=O)NCCc3ccccc3)n2)cc1 -9.95%
CCCSc1ncc(Cl)c(C(=O)Nc2sc3c(c2C(=O)OC)CCCC3)n1 -10.6%
CC(C)(C)NC(=O)c1oc2ccccc2c1NC(=O)c1ccccc1F -15.4%
CCC(C)NC(=O)CCC(=O)N1Cc2ccccc2Oc2ncccc21 (stereo not given) 3.6%
CC1=C(C(=O)N2CCN(c3ccccc3)CC2)C2(CCCCC2)OC1=O -14.5%
Cc1ccc(-n2nc(C)c(C(=O)O)c2-n2cccc2)cc1 -9%
Cc1ccc(CNC(=O)c2c(C)oc3ncnc(N4CCOCC4)c23)cc1 -19.2%
CCOC(=O)c1c(C)[nH]c(C)c1S(=O)(=O)N(C)CC(=O)Nc1ccc(CC)cc1 -23.3%
O=C(NCc1ccccc1)c1cc2ccc3cccnc3c2[nH]1 56.5%
CCc1ccc(-n2c(=O)c3c4c(sc3n(CC(=O)c3ccc(Br)cc3)c2=O)CCC4)cc1 -14.5%
Cc1cccc(C)c1NC(=O)Cn1nnc(C(=O)NCc2ccc(F)cc2)c1N -4.99%
Cc1ccccc1CCNC(=O)C1CCN(S(=O)(=O)c2ccc3c(ccn3C)c2)CC1 -0.792%
O=C(NCC1(c2ccccc2)CCCC1)C(=O)Nc1cccc(Br)c1 0.857%
Cn1c(=O)c2c(nc(Oc3ccccc3Cl)n2Cc2ccc(C#N)cc2)n(C)c1=O -9.45%
Cn1nnnc1SCCCNCc1cccc(OCc2ccc(F)cc2)c1 -26%
Cc1oc2c(C)c3oc(=O)c(CC(=O)N4CCCCC4)c(C)c3cc2c1C -5%
CCc1nn(C(C)C(=O)N2CCN(c3ccccc3)CC2)c(=O)c2cc3occc3n12 (stereo not given) -28.7%
CCCN(CCC)C(=O)C(Cc1ccccc1)NS(=O)(=O)c1ccc2c(c1)c(=O)n(C)c(=O)n2C (stereo not given) -7.4%

Potency, active:
C[n+]1cc2c3c(ccc2c2ccc4cc5c(cc4c21)OCO5)OCO3 2.82 µM
Cc1cccc(N2CCN(C(=O)C3CCN(c4ncnc5c4nc4n5CCCCC4)CC3)CC2C)c1 (stereo not given) 25.1 µM
